At least one compound was matched to its structure with a doubt left. Some of these results come from one statement about several compounds together.
Assays:
HL-60 cells = experiment: Vitamin D3 antagonist action: inhibition of HL-60 cell differentiation induced by 1α,25-dihydroxyvitamine D3 (NBT reducing activity); type: cell-based; conditions: inhibition of NBT reducing activity induced by 1×10^-8 M 1α,25-dihydroxyvitamine D3, 4 days
Text: The Vitamin D3 Antagonist Action Determined by Using the Induction of HL-60 Cell Differentiation by 1α,25-dihydroxyvitamine D3 as an Indicator
(1) HL-60 cells that were purchased from a cell bank (Japanese Cancer Research Resources Bank, Cell No. JCRB0085) were used. The cells were maintained as a frozen preservation stock to prevent changes in cellular characteristics by subculture. The stock was thawed before starting the experiment, and the cells which subsequently initiated subculture were used. The cells with subcultivation approximately over one month to a half year were used for the experiment. The subcultivation was performed by first centrifuging and collecting cells in suspension culture, and then diluting the collected cells by approximately a factor of 100 to a concentration of 1×10^4 to 2×10^4 cells/ml in a fresh culture medium. An RPMI-1640 medium with 10% fetal bovine serum was used as the culture medium.
(2) The cells that had been subcultured in (1) were collected by centrifugation and dispersed to a concentration of […] cells/ml in the culture medium, and the dispersed cells were subsequently seeded with 1 ml/well in a 24-well culture dish. To this system was added an ethanol solution, which was prepared with 1×10^−5 M of 1α,25-dihydroxyvitamine D3 and 1×10^−8 M to 10^−4 M of the compound of the present invention, at 1 μl per well (the final concentration: 1×10^−8 M of 1α,25-dihydroxyvitamine D3 and 1×10^−11 M to 10^−7 M of the compound of the present invention). As a control, ethanol was added at 1 μl per well. The cells were incubated under 5% CO2 at 37° C. for 4 days, and the culture medium was subjected to centrifugation to collect the cells.
(3) The induction of nitroblue tetrazolium (hereinafter referred to as NBT) reducing activity was used as an indicator of the induction of HL-60 cell differentiation. The NBT reducing activity was measured according to the procedures described below. That is, after the centrifuged and collected cells were suspended in a fresh culture medium, NBT and 12-O-tetradecanoylphorbol-13-acetate were added to the medium to make their concentrations 0.1% and 100 ng/ml, respectively, and then the medium was incubated at 37° C. for 25 minutes to create a Cytospin sample. After air drying the resultant sample, Kernechtrot staining was performed to determine the ratio of NBT reducing activity-positive cells under an optical microscope. A percent ratio of the positive cell ratio obtained by the concomitant treatment with 1×10^−8 M of 1α,25-dihydroxyvitamine D3 and 1×10^−11 M to 1×10^−7 M of the compound of the present invention to the positive cell ratio obtained by the treatment of 1×10^−8 M of 1α,25-dihydroxyvitamine D3 alone was plotted as a function of the treatment concentration of the compound of the present invention. The plotted results were used to calculate the treatment concentration of the compound of the present invention corresponding to the percent ratio of 50%, which was designated as the IC50 value (nM).
The Effect on the Induction of NBT Reducing Activity in HL-60 Cells (The Inhibitory Effect of the Compound of the Present Invention on the Cell Differentiation Induction by 1α,25-dihydroxyyitamine D3)

[1] = molecular target: T1, 1α,25-dihydroxyvitamine D3 receptor (VDR) (Gallus gallus, UniProt O42392); experiment: Binding affinity to the 1α,25-dihydroxyvitamine D3 receptor (VDR) in chicken small intestinal mucosal cells; conditions: relative intensity ratio of the concentration inhibiting 50% of [26,27-methyl-3H]1α,25-dihydroxyvitamine D3 binding; 1α,25-dihydroxyvitamine D3 = 1
T1 construct: 0.2 mg of the 1α,25-dihydroxyvitamine D3 receptor protein in chicken small intestinal mucosal cells; from tissue; host or cells: chicken small intestinal mucosal cells
T1 sequence (O42392 1-451): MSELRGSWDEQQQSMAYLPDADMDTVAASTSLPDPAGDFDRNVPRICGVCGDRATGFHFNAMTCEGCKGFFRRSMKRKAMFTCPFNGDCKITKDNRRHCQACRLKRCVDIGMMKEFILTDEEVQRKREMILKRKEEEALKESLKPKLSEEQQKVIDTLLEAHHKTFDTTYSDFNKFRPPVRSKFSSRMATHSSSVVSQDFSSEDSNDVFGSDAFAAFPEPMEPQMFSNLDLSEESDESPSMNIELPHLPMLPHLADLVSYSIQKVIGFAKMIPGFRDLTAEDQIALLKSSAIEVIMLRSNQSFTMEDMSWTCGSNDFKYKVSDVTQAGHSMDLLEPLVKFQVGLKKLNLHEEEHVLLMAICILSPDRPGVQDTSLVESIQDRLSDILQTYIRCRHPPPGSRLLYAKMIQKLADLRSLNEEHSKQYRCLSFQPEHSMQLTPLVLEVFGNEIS

Which IC50 (HL-60 cells) does the source give for “2α-methyl-20(R)-(tetrahydro-3-methylene-2-furanone-4(R)-methyl-5(R)-yl)methyl-9,10-secopregna-5(Z),7(E),10(19)-triene-1α,3β-diol [Compound No. 201a]” here?
Its IC50 is under 10 nM.

Which IC50 (HL-60 cells) does the source give for “2α-methyl-20(R)-(tetrahydro-3-methylene-2-furanone-4(R)-methyl-5(S)-yl)methyl-9,10-secopregna-5(Z),7(E),10(19)-triene-1α,3β-diol [Compound No. 201c]” here?
The IC50 was under 10 nM.

“2α-methyl-20(R)-(tetrahydro-3-methylene-2-furanone-4(S)-methyl-5(R)-yl)methyl-9,10-secopregna-5(Z),7(E),10(19)-triene-1α,3β-diol [Compound No. 201d]” was tested. Which IC50 (HL-60 cells) did it give?
The IC50 was under 10 nM.

For “2α-methyl-20(R)-(tetrahydro-3-methylene-2-furanone-4(S)-methyl-5(S)-yl)methyl-9,10-secopregna-5(Z),7(E),10(19)-triene-1α,3β-diol [Compound No. 201b]”, which IC50 (HL-60 cells) is on record?
The IC50 was under 10 nM.

C=C1C(=O)OC(C[C@@H](C)[C@H]2CC[C@H]3/C(=C/C=C4/C[C@@H](O)C[C@H](O)C4=C)CCC[C@]23C)C1CC (single isomer, unassigned) [Compound No. 102a] was tested. Which “VDR Affinity” value [1] did it give?
Its value is 1/10-1/30.

And the IC50 (HL-60 cells)?
The IC50 was 100 to 300 nM.

Which results are given for C=C1C(=O)OC(C[C@@H](C)[C@H]2CC[C@H]3/C(=C/C=C4/C[C@@H](O)C[C@H](O)C4=C)CCC[C@]23C)C1CC (single isomer, unassigned) [Compound No. 102b]?
VDR Affinity [1]: 1/10-1/30; IC50 (HL-60 cells): 10 to 100 nM

C=C1C(=O)OC(C[C@@H](C)[C@H]2CC[C@H]3/C(=C/C=C4/C[C@@H](O)C[C@H](O)C4=C)CCC[C@]23C)C1CC (single isomer, unassigned) [Compound No. 102c] was tested. Which “VDR Affinity” value [1] did it give?
The value was 1/5-1/10.

And the IC50 (HL-60 cells)?
The IC50 was 10 to 100 nM.

Which “VDR Affinity” value [1] does the source give for C=C1C(=O)OC(C[C@@H](C)[C@H]2CC[C@H]3/C(=C/C=C4/C[C@@H](O)C[C@H](O)C4=C)CCC[C@]23C)C1CC (single isomer, unassigned) [Compound No. 102d] here?
Its value is 1-1/5.

And the IC50 (HL-60 cells)?
The IC50 was under 10 nM.

With C=C1C(=O)OC(C[C@@H](C)[C@H]2CC[C@H]3/C(=C/C=C4/C[C@@H](O)C[C@H](O)C4=C)CCC[C@]23C)C1CC(C)C (single isomer, unassigned) [Compound No. 106a] as the compound, how does the IC50 (HL-60 cells) read?
The IC50 was 100 to 300 nM.

With C=C1C(=O)OC(C[C@@H](C)[C@H]2CC[C@H]3/C(=C/C=C4/C[C@@H](O)C[C@H](O)C4=C)CCC[C@]23C)C1CC(C)C (single isomer, unassigned) [Compound No. 106b] as the compound, how does the IC50 (HL-60 cells) read?
The IC50 was 100 to 300 nM.

Which IC50 (HL-60 cells) does the source give for C=C1C(=O)OC(C[C@@H](C)[C@H]2CC[C@H]3/C(=C/C=C4/C[C@@H](O)C[C@H](O)C4=C)CCC[C@]23C)C1CC(C)C (single isomer, unassigned) [Compound No. 106c] here?
Its IC50 is 10 to 100 nM.

C=C1C(=O)OC(C[C@@H](C)[C@H]2CC[C@H]3/C(=C/C=C4/C[C@@H](O)C[C@H](O)C4=C)CCC[C@]23C)C1CC(C)C (single isomer, unassigned) [Compound No. 106d] was tested. Which “VDR Affinity” value [1] did it give?
The value was 1-1/5.

And the IC50 (HL-60 cells)?
Its IC50 is under 10 nM.

Which results are given for C=C1C(=O)OC(C[C@@H](C)[C@H]2CC[C@H]3/C(=C/C=C4/C[C@@H](O)C[C@H](O)C4=C)CCC[C@]23C)C1CCCCCC (single isomer, unassigned) [Compound No. 107a]?
VDR Affinity [1]: 1/10-1/30; IC50 (HL-60 cells): 10 to 100 nM

C=C1C(=O)OC(C[C@@H](C)[C@H]2CC[C@H]3/C(=C/C=C4/C[C@@H](O)C[C@H](O)C4=C)CCC[C@]23C)C1CCCCCC (single isomer, unassigned) [Compound No. 107c] was tested. Which “VDR Affinity” value [1] did it give?
Its value is 1/10-1/30.

And the IC50 (HL-60 cells)?
The IC50 was 10 to 100 nM.

For C=C1C(=O)OC(C[C@@H](C)[C@H]2CC[C@H]3/C(=C/C=C4/C[C@@H](O)C[C@H](O)C4=C)CCC[C@]23C)C1CCCCCC (single isomer, unassigned) [Compound No. 107d], which “VDR Affinity” value [1] is on record?
The value was 1-1/5.

What about the IC50 (HL-60 cells) of the same compound?
Its IC50 is under 10 nM.

For C=C1C(=O)OC(C[C@@H](C)[C@H]2CC[C@H]3/C(=C/C=C4/C[C@@H](O)C[C@H](O)C4=C)CCC[C@]23C)C1CCO (single isomer, unassigned) [Compound No. 114b], which IC50 (HL-60 cells) is on record?
The IC50 was 10 to 100 nM.

Which IC50 (HL-60 cells) does the source give for C=C1C(=O)OC(C[C@@H](C)[C@H]2CC[C@H]3/C(=C/C=C4/C[C@@H](O)C[C@H](O)C4=C)CCC[C@]23C)C1CCO (single isomer, unassigned) [Compound No. 114c] here?
Its IC50 is 10 to 100 nM.

C=C1C(=CC=C2CCCC3(C)C2CCC3C(C)CC2OC(=O)C(=C)C2C)CC(O)CC1O [Compound No. 101a, 20(R)-(tetrahydro-3-methylene-2-furanone-4-methyl-5-yl)methyl-9,10-secopregna-5(Z),7(E),10(19)-triene-1α,3β-diol] was tested. Which “VDR Affinity” value [1] did it give?
The value was 1/5-1/10.

And the IC50 (HL-60 cells)?
The IC50 was 100 to 300 nM.

With C=C1C(=CC=C2CCCC3(C)C2CCC3C(C)CC2OC(=O)C(=C)C2C)CC(O)CC1O [Compound No. 101b, 20(R)-(tetrahydro-3-methylene-2-furanone-4-methyl-5-yl)methyl-9,10-secopregna-5(Z),7(E),10(19)-triene-1α,3β-diol] as the compound, how does the “VDR Affinity” value [1] read?
The value was 1/10-1/30.

And the IC50 (HL-60 cells)?
The IC50 was 10 to 100 nM.

What does the source list for C=C1C(=CC=C2CCCC3(C)C2CCC3C(C)CC2OC(=O)C(=C)C2C)CC(O)CC1O [Compound No. 101c, 20(R)-(tetrahydro-3-methylene-2-furanone-4-methyl-5-yl)methyl-9,10-secopregna-5(Z),7(E),10(19)-triene-1α,3β-diol]?
VDR Affinity [1]: 1-1/5; IC50 (HL-60 cells): < 10 nM

With C=C1C(=CC=C2CCCC3(C)C2CCC3C(C)CC2OC(=O)C(=C)C2C)CC(O)CC1O [Compound No. 101d, 20(R)-(tetrahydro-3-methylene-2-furanone-4-methyl-5-yl)methyl-9,10-secopregna-5(Z),7(E),10(19)-triene-1α,3β-diol] as the compound, how does the “VDR Affinity” value [1] read?
Its value is 1-1/5.

What about the IC50 (HL-60 cells) of the same compound?
Its IC50 is under 10 nM.

C=C1C(=CC=C2CCCC3(C)C2CCC3C(C)CC2OC(=O)C(=C)C2C(C)C)CC(O)CC1O [Compound No. 104a, 20(R)-(tetrahydro-3-methylene-2-furanone-4-isopropyl-5-yl)methyl-9,10-secopregna-5 (Z),7(E),10(19)-triene-1α,3β-diol] was tested. Which IC50 (HL-60 cells) did it give?
The IC50 was 100 to 300 nM.

For C=C1C(=CC=C2CCCC3(C)C2CCC3C(C)CC2OC(=O)C(=C)C2C(C)C)CC(O)CC1O [Compound No. 104b, 20(R)-(tetrahydro-3-methylene-2-furanone-4-isopropyl-5-yl)methyl-9,10-secopregna-5 (Z),7(E),10(19)-triene-1α,3β-diol], which IC50 (HL-60 cells) is on record?
Its IC50 is 10 to 100 nM.

For C=C1C(=O)OC(C[C@@H](C)[C@H]2CC[C@H]3/C(=C/C=C4/C[C@@H](O)C[C@H](O)C4=C)CCC[C@]23C)C1CCCCCC (stereo partly drawn) [Compound No. 107b, 20(R)-(tetrahydro-3-methylene-2-furanone-4-hexyl-5-yl)methyl-9,10-secopregna-5(Z),7(E),10(19)-triene-1α,3β-diol], which “VDR Affinity” value [1] is on record?
Its value is 1/10-1/30.

With C=C1C(=O)OC(C[C@@H](C)[C@H]2CC[C@H]3/C(=C/C=C4/C[C@@H](O)C[C@H](O)C4=C)CCC[C@]23C)C1CCCCCCCC (stereo partly drawn) [Compound No. 108a, 20(R)-(tetrahydro-3-methylene-2-furanone-4-octyl-5-yl)methyl-9,10-secopregna-5(Z),7(E),10(19)-triene-1α,3β-diol] as the compound, how does the IC50 (HL-60 cells) read?
Its IC50 is 10 to 100 nM.
